# Test results from PubChem BioAssay (Tox21).
# Values joined by “and” are separate entries in the source; they are usually repeats but may differ in a detail not shown here. Equal values may be shown once. The shares of active, inactive and inconclusive entries below differ from those in the screen. Potencies of inconclusive entries are doubtful fits and often do not repeat. Active and inactive are the calls of the source. The call rests on the fitted dose curve; in most records, active means well fitted curve in the direction sought with a large enough effect in the repeat runs; inconclusive means weak or mixed curves; inactive means no such curve, though single readings can be large; an effect the other way counts as inactive or inconclusive.
# Experiments:
# [1] = target: Cytochrome P450 1A2 (Homo sapiens) (UniProt P05177); experiment: Cytochrome P450 Family 1 Subfamily A Member 2 (CYP1A2) small molecule antagonists: luciferase reporter qHTS assay (AID 1671199); conditions: P450-Glo CYP1A2 enzyme, luciferin luminescence, 1 h; series mostly up to 115 µM
# In short: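 Read-out is luminescence from luciferin detection reagent (20 min) proportional to CYP1A2 activity; compounds in DMSO preincubated 10 min with enzyme and proluciferin substrate, then NADPH regeneration solution, 1 h, room temperature.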
# [2] = target: Voltage-gated inwardly rectifying potassium channel KCNH2 (Homo sapiens) (UniProt Q12809); experiment: Human Ether-a-go-go-Related Gene (hERG) channel small molecule antagonists: fluorescence cell-based qHTS assay (AID 1671200); conditions: hERG-U2OS cells, FluxOR thallium flux fluorescence; series mostly up to 76.8 µM
# In short: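 Thallium flux as potassium surrogate: FluxOR II dye loaded 1 h at room temperature into hERG-expressing U2OS cells, then stimulus buffer added after 10 min. Kinetic 480 nm excitation/540 nm emission read, 2 min.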
# [3] = target: Cytochrome P450 3A4 (Homo sapiens) (UniProt P08684); experiment: Cytochrome P450 Family 3 Subfamily A Member 4 (CYP3A4) small molecule antagonists: luciferase reporter qHTS assay (AID 1671201); conditions: P450-Glo CYP3A4 enzyme, luciferin luminescence, 1 h; series mostly up to 115 µM
# In short: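 Recombinant human CYP3A4 converts a proluciferin substrate to luciferin over 1 h at room temperature after NADPH regeneration solution is added (compound preincubated 10 min); detection reagent stops reaction, luminescence read 20 min later as relative units.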
# Further: nearly all actives have a fitted effect of over 50% in size.
# Potency means the concentration at half of the fitted maximal effect; tags describe the fitted curve by direction and shape.
# Sequence of UniProt Q12809 (Q12809 whole entry, looked up): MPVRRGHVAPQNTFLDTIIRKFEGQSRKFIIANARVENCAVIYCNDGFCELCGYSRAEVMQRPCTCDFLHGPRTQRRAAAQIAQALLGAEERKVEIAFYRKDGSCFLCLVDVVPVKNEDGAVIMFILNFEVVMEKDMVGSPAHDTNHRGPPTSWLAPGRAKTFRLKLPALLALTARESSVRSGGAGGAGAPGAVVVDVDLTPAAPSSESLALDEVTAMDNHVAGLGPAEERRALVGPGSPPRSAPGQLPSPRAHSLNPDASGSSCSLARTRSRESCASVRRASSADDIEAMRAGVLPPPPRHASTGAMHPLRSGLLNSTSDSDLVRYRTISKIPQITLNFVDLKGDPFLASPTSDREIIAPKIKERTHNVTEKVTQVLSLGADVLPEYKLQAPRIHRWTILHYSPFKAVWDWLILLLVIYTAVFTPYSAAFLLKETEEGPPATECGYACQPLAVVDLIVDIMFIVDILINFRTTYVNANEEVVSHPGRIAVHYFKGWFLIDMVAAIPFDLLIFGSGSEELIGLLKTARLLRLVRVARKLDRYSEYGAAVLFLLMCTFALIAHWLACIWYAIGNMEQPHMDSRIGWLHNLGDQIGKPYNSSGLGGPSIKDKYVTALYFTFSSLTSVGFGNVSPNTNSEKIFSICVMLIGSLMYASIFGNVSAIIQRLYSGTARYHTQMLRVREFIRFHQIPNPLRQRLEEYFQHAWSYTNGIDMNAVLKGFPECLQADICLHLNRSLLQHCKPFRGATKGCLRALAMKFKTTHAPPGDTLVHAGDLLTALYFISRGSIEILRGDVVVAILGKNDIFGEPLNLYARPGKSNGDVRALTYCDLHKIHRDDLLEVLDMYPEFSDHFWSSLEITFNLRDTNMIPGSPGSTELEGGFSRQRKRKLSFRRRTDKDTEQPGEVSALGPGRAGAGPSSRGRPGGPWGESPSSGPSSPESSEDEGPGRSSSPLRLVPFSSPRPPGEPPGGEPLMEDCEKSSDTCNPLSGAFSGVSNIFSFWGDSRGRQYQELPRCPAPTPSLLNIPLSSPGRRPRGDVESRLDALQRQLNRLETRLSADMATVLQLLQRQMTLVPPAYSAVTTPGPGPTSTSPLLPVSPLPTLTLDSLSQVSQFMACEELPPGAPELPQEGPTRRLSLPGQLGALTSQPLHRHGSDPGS
# Sequence of UniProt P08684 (P08684 whole entry, looked up): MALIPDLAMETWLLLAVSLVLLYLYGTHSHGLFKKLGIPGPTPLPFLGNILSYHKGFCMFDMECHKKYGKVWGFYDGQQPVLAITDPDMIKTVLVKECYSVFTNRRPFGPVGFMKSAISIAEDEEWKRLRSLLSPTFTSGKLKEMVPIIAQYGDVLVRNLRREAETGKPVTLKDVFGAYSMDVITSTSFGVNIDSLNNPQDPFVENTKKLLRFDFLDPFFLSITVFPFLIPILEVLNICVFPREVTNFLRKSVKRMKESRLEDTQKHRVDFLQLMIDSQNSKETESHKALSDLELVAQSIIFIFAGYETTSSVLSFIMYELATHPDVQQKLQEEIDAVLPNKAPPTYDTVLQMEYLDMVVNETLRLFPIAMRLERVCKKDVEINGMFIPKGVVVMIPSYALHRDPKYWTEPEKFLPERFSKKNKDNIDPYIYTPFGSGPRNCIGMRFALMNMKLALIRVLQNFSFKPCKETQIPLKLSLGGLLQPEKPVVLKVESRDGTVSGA
# Sequence of UniProt P05177 (P05177 whole entry, looked up): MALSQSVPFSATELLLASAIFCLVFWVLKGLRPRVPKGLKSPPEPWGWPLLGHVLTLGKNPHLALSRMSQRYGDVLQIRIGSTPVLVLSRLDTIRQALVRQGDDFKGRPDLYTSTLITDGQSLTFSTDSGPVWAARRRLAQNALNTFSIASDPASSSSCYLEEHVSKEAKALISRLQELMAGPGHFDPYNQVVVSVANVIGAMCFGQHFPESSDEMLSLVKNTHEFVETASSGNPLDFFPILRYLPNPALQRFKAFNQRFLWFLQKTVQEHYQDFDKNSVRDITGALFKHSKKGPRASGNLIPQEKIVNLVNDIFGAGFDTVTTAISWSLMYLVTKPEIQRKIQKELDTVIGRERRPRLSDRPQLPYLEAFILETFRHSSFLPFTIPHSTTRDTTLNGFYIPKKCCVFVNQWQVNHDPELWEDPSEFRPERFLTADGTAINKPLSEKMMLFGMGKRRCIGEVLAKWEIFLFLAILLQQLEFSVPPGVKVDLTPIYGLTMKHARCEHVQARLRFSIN
Compound,Potency [1],Potency [2],Potency [3]
O=[N+]([O-])c1ccc(Oc2ccc(Cl)cc2Cl)cc1,active: 31.9 µM and active: 22.4 µM,"inconclusive: 17.5 µM [inhibitor, full curve]","inconclusive: 63.6 µM [inhibitor, partial curve, poor fit]"
CCOC(=O)CCN(SN(C)C(=O)Oc1cccc2c1OC(C)(C)C2)C(C)C,active: 22.4 µM,"inconclusive: 38.9 µM [inhibitor, partial curve]",
O=C(O)C(Br)(Br)Br,"inconclusive: 89.4 µM [inhibitor, partial curve, poor fit]",inactive,
O=C(O)C(Cl)Br (stereo not drawn),inconclusive: 71.8 µM [inhibitor],,
CC(C)N(C(=O)SCC(Cl)=C(Cl)Cl)C(C)C,"inconclusive: 63.3 µM [inhibitor, partial curve]","inconclusive: 21.6 µM [inhibitor, partial curve]",
CC1(C)CC/C(=C/c2ccc(Cl)cc2)C1(O)Cn1cncn1 (stereo not drawn),active: 35.4 µM,,
O=c1[nH]c2ccccc2o1,"inconclusive: 63.4 µM [inhibitor, partial curve]",,
BrCC(Br)C1CCC(Br)C(Br)C1 (stereo not drawn),"inconclusive: 44.6 µM [inhibitor, partial curve]","inconclusive: 34.5 µM [inhibitor, partial curve]",
c1ccc(N=NNc2ccccc2)cc1,active: 13.1 µM and active: 15.9 µM,inconclusive: 50.7 µM [inhibitor] and inconclusive: 54.9 µM [inhibitor],
c1ccc2sc(SNC3CCCCC3)nc2c1,active: 55.8 µM and active: 35.6 µM,"inconclusive: 30.9 µM [inhibitor, partial curve, poor fit]",
Clc1ccc(C(Cl)(Cl)Cl)cc1,"inconclusive: 63.3 µM [inhibitor, partial curve]",inactive,
CC(C)(C)C(O)/C(=C\c1ccc(Cl)cc1Cl)n1cncn1 (stereo not drawn),active: 38.4 µM,"inconclusive: 66.5 µM [inhibitor, single point]",
ClCCCCBr,inactive,,
Cc1c(Cl)c(=O)oc2cc(OP(=O)(OCCCl)OCCCl)ccc12,"inconclusive: 18.2 µM [inhibitor, partial curve]",inconclusive: 23.9 µM [inhibitor],
CN1C(=O)NC(=O)C(C)(C2=CCCCC2)C1=O (stereo not drawn),inactive,,
CSc1ccc(C(=O)C(C)(C)N2CCOCC2)cc1,"inconclusive: 35.6 µM [inhibitor, partial curve]","inconclusive: 61.6 µM [inhibitor, partial curve, poor fit]",

Compound,Potency [1],Potency [2],Potency [3]
CCOC(=O)C1(c2ccccc2)CCN(CCC(C#N)(c2ccccc2)c2ccccc2)CC1,inactive,active: 0.601 µM,
N[C@@H]1C[C@H]1c1ccccc1,"inconclusive: 25.7 µM [inhibitor, partial curve]",,
CCCC(C)(COC(N)=O)COC(=O)NC(C)C (stereo not drawn),"inconclusive: 79.4 µM [inhibitor, partial curve]",,
C=CCO,"inconclusive: 44.8 µM [inhibitor, partial curve]",,
COC(=O)N(C(=O)N1CO[C@@]2(C(=O)OC)Cc3cc(Cl)ccc3C2=N1)c1ccc(OC(F)(F)F)cc1,"inconclusive: 48.6 µM [inhibitor, partial curve, poor fit]",inactive,
N#Cc1nn(-c2c(Cl)cc(C(F)(F)F)cc2Cl)c(N)c1S(=O)C(F)(F)F (stereo not drawn),inactive,"inconclusive: 39.1 µM [inhibitor, partial curve]","inconclusive: 45.1 µM [inhibitor, partial curve] and inconclusive: 15.5 µM [inhibitor, partial curve, poor fit]"
CCN(CC)C(=O)SCc1ccc(Cl)cc1,active: 13 µM and active: 15.9 µM,"inconclusive: 56.6 µM [inhibitor] and inconclusive: 49 µM [inhibitor, partial curve]",
Cc1ccccc1OP(=O)(Oc1ccccc1C)Oc1ccccc1C,"inconclusive: 31.8 µM [inhibitor, partial curve]","inconclusive: 19.6 µM [inhibitor, partial curve]",
CC(CC(C#N)(c1ccccc1)c1ccccc1)N(C)C (stereo not drawn),inactive,active: 27.4 µM,
O=C1NCN(c2ccccc2)C12CCN(CC1COc3ccccc3O1)CC2 (stereo not drawn),inactive,active: 7.56 µM,
O=C=Nc1ccc(Cl)cc1,"inconclusive: 31.7 µM [inhibitor, partial curve]",inactive,
CCOc1cc(Oc2ccc(C(F)(F)F)cc2Cl)ccc1[N+](=O)[O-],"inconclusive: 25.5 µM [inhibitor, partial curve]","inconclusive: 19.5 µM [inhibitor, partial curve]",
C[C@H]1CCC[C@H](O)CCCCCc2cc(O)cc(O)c2C(=O)O1,active: 35.8 µM,"inconclusive: 55.4 µM [inhibitor, single point]",active: 0.715 µM
Oc1ccc(C(=C(Cl)Cl)c2ccc(O)cc2)cc1,active: 39.8 µM,"inconclusive: 54.8 µM [inhibitor, partial curve, poor fit]",
CC1(c2ccc(Oc3ccccc3)cc2)OC(=O)N(Nc2ccccc2)C1=O (stereo not drawn),active: 35.8 µM,"inconclusive: 19.6 µM [inhibitor, partial curve]",active: 11.3 µM
